Measured values taken from ChEMBL document CHEMBL5724801, “EUbOPEN Chemogenomics Library - Multiplex” (2024).
A number of entries come with more than one value. This is not the full list of results. The source may hold further records. The values listed for one entry are repeats (runs, samples, wells, individuals or studies).

What was measured:
Type in all cases: toxicity, cell-based
[1] = system: Fibroblast; assay: Multiplex assay against human fibroblast
Method in brief: (§1)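 Compound was added to live cells that had been stained at seeding with Hoechst33342, BioTracker Green Microtubule Cytoskeleton Dye, MitoTracker Red and Annexin V Alexa Fluor 680, and imaging followed on a CQ1 microscope at 37°C and 5% CO2. CellPathfinder machine-learning gating divided cells into Hoechst high-intensity objects or normal cells, normal cells into healthy, pyknosed or fragmented nuclei, and pyknosed cells into mitotic or apoptotic. Tubulin, mitochondrial-mass and membrane-permeability phenotypes are per cents of healthy-nucleus cells.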

[2] = system: HEK-293T; assay: Multiplex assay against HEK293T; conditions: human; method in brief: as §1
[3] = system: U2OS; assay: Multiplex assay against U2OS; conditions: human; method in brief: as §1
[4] = 12 h, 10 µM, compound concentration 10 uM
[5] = 48 h, 1 µM, compound concentration 1 uM
[6] = 12 h, 1 µM, compound concentration 1 uM
[7] = 24 h, 1 µM, compound concentration 1 uM
[8] = 24 h, 10 µM, compound concentration 10 uM
[9] = 48 h, 10 µM, compound concentration 10 uM

SMILES | Population Apoptotic (%) [1, 4] | Population Mitochondria Different-Phenotype (%) [1, 5] | Population Healthy Nuclei (%) [2, 6] | Population Mitochondria Different-Phenotype (%) [2, 6] | Population Tubulin-Different-Phenotype (%) [2, 6] | Population Healthy Nuclei (%) [2, 4] | Population Tubulin-Different-Phenotype (%) [2, 4] | Population Pyknosed Nuclei (%) [2, 7] | Population Tubulin-Different-Phenotype (%) [2, 5] | Total Cell Count [2, 5] | Population Apoptotic (%) [2, 9] | Population Tubulin-Different-Phenotype (%) [2, 9] | Total Cell Count [2, 9] | Total Cell Count [3, 6] | Population Mitochondria Different-Phenotype (%) [3, 4] | Total Cell Count [3, 7] | Population Mitochondria Different-Phenotype (%) [3, 8] | Total Cell Count [3, 5] | Population Mitochondria Different-Phenotype (%) [3, 9] | Total Cell Count [3, 9] | further results
CCCCCN1C(=O)C2(COc3cc4c(cc32)OCO4)c2ccccc21 (stereo unspecified) | 2.99% and 14.55% | 17.98% and 4.02% | 57.84% and 16% | 35.59% and 8.33% | 6.21% and 29.17% | 42.32% and 10.97% | 8.15% and 47.06% | 18.73% and 60.2% | 1.42% and 21.37% | 1196 and 310 | 6.8% and 24.44% | 2.45% and 37.9% | 862 and 216 | 471 and 156 | 0.28% and 23.39% | 633 and 205 | 0.66% and 21.32% | 1207 and 356 | 0.24% and 13.48% | 950 and 272 | Population Apoptotic (%) [1, 5]: 7.69% and 35.71%; Population Healthy Nuclei (%) [2, 8]: 66.52% and 19.3%; Total Cell Count [3, 8]: 526 and 166
Cc1c(C(=O)NCCCN(C)C)sc2ncnc(Nc3ccc(F)cc3OC(C)CF)c12 (stereo unspecified) | – | – | 64.3% and 12.16% | – | 15.35% and 55.56% | – | – | 20.52% and 74.19% | 4.02% and 74.34% | 1377 and 206 | – | – | – | – | 3.55% and 62.89% | – | 10.23% and 68.63% | 890 and 276 | 8.08% and 43.33% | 538 and 175 | Population Apoptotic (%) [1, 6]: 7.58% and 25%; Population Apoptotic (%) [1, 7]: 5.26% and 27.27%; Population Membrane Permeable-Phenotype (%) [2, 4]: 1.89% and 13.33%; Population Mitochondria Different-Phenotype (%) [2, 4]: 49.06% and 6.67%; Population Healthy Nuclei (%) [2, 7]: 77.04% and 23.23%; Total Cell Count [2, 7]: 575 and 155; Population Pyknosed Nuclei (%) [2, 5]: 9.51% and 42.72%; Total Cell Count [3, 4]: 445 and 148; Population Mitochondria Different-Phenotype (%) [3, 7]: 0.25% and 10.87%
Cc1cc(C(C#N)c2ccc(Cl)cc2)c(Cl)cc1NC(=O)c1cc(I)cc(I)c1O (stereo unspecified) [CLOSANTEL] | 4.84% and 21.43% | 13.37% and 1.62% | 55.02% and 17.22% | 41.44% and 9.68% | 3.87% and 35.48% | 59.2% and 13.21% | 4.85% and 19.05% | – | 1.49% and 35.5% | 1390 and 250 | 3.97% and 20% | 0.59% and 33.15% | 1356 and 278 | 532 and 144 | – | 727 and 167 | – | 1332 and 299 | – | – | Population Apoptotic (%) [1, 6]: 2.5% and 12.9%; Population Mitochondria Different-Phenotype (%) [2, 4]: 35.92% and 9.52%; Population Pyknosed Nuclei (%) [2, 5]: 9.71% and 30.65%; Population Pyknosed Nuclei (%) [2, 9]: 9.3% and 32.37%
